Laboratory results: PubChem BioAssay AID2675 (National Center for Advancing Translational Sciences (NCATS), 2010)
The whole screen tested about 280,000 compounds, of which about 100 (0.036%) were called active. Inconclusive results, whose numbers are uncertain, are shown with a selection of clear calls. Calls follow the shape of the dose curve; as a rule, active = well fitted inhibition curve with a large enough effect in the signal ratio, with a control signal flat (not every such curve was filed as active); inconclusive = small, poorly fitted or top-dose-only effect, or effect the other way, or a change in a side signal; inactive = no such curve, though single readings can be large or run the other way; the % refers to the signal ratio. Potencies of inconclusive entries are doubtful fits and often do not repeat. A note “side channel” means that the fit belongs to a control or component signal, not to the main read-out.

biological target: Muscleblind-like protein 1 (Homo sapiens) (UniProt Q9NR56); assay: qHTS Assay for Inhibitors of MBNL1-poly(CUG) RNA binding; conditions: TR-FRET MBNL1-His/biotin-(CUG)12 binding, 665/545 ratio; series mostly up to 57.5 µM
UniProt Q9NR56, sequence (Q9NR56 whole entry, looked up): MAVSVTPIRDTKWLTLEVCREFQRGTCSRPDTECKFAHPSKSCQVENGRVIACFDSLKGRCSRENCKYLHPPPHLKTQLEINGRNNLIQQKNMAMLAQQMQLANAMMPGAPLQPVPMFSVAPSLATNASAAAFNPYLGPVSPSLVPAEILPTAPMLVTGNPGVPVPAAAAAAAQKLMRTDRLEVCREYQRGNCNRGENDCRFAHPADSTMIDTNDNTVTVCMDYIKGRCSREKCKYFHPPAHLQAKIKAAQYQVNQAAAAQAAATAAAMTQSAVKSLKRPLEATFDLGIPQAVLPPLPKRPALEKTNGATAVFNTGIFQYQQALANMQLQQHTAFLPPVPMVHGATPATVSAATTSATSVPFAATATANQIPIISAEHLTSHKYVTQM
Outline: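 Ratiometric TR-FRET (665 over 545 nm, excitation 340 nm) tracks disruption of MBNL1-His/biotin-(CUG)12 complex after 60 min at room temperature, with compounds at 92 nM to 58 uM final.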
Potency is read from the fitted curve at half-maximal effect; tags tell the direction and shape of the fitted curve or compound fluorescence and quenching.

| Structure (SMILES) | Potency |
| --- | --- |
| Cc1c(C(=O)N2CCCC2)sc(NC(=O)c2ccc(Cl)cc2)c1C#N | inconclusive: 10 µM [quencher, side channel, partial curve] |
| CCn1c2ccccc2c2cc(NC(=O)c3coc(=O)c(Br)c3)ccc21 | inactive |
| O=C(N1CCN(Cc2ccccc2)CC1)C12CC3CC(CC(C3)C1)C2 | inconclusive: 39.8 µM [quencher, side channel, single point] |
| O=[N+]([O-])c1ccc(Nc2ccccc2F)nc1 | inconclusive: 28.2 µM [quencher, side channel, partial curve] |
| CCN(CC)c1ccc(/C=N/NC(=O)OC)c(O)c1 | inconclusive: 25.1 µM [quencher, side channel, single point] |
| CCn1cc(C(=O)NCc2ccco2)c(=O)c2cc(S(=O)(=O)N3CCC(C)CC3)ccc21 | inactive |
| Cc1ccc2nc(-c3ccco3)c(Nc3ccccc3)n2c1 | inactive |
| c1ccc2oc(-c3csc(NCC4CCCO4)n3)cc2c1 (stereo unspecified) | inactive |
| N#Cc1cc(C(=O)c2cc(F)ccc2O)cn(-c2nccs2)c1=O | inconclusive: 1.78 µM [quencher, side channel, full curve, poor fit] |
| COc1ccc2cc(C(=O)C3CCCN(C(=O)c4cccnc4)C3)ccc2c1 (stereo unspecified) | inconclusive: 28.2 µM [quencher, side channel, single point] |
| COc1ccccc1Nc1nc2nonc2[nH]c1=O | inconclusive: 28.2 µM [quencher, side channel, single point] |
| C/C(N)=C(/C#N)C(=O)COC(=O)c1cccc2ccccc12 | inconclusive: 22.4 µM [quencher, side channel, partial curve, poor fit] |
| N#C/C(=N\O)c1nc(-c2ccccc2)cs1 | inconclusive: 17.8 µM [quencher, side channel, partial curve] |
| FC(F)(F)c1cnc(NNC(=S)Nc2cccnc2)c(Cl)c1 | inactive |
| CCOC(=O)C(C(C)=O)c1nc(C)nc2c1nnn2Cc1ccccc1Cl (stereo unspecified) | inconclusive: 25.1 µM [quencher, side channel, single point] |
| CC1(C)Cc2c(C#N)c(N3CCN(C(=O)c4ccco4)CC3)nc(Cc3ccccc3)c2CO1 | inactive |
| CN(C)c1ccc(N=Cc2nc(-c3ccccc3)oc2OC(=O)c2cccc(Br)c2)cc1 | inactive |
| Cc1ccc(NCc2ccc([N+](=O)[O-])s2)cc1 | inconclusive: 20 µM [quencher, partial curve] |
| O=C1NC(=Nc2ccccc2)/C(=C/c2ccco2)S1 | inconclusive: 6.31 µM [quencher, side channel, partial curve] |
| Cc1ccc(C(C#N)c2ccc3c(C(F)(F)F)cc(C(F)(F)F)nc3n2)cc1 (stereo unspecified) | inconclusive: 20 µM [quencher, side channel, partial curve] |
| Cn1ccc(=Nc2ccc(NC(=O)c3ccc(N=c4ccn(C)c5ccc([N+](=O)[O-])cc45)cc3)cc2)cc1 | inconclusive: 12.6 µM [quencher, side channel, partial curve] |

| Structure (SMILES) | Potency |
| --- | --- |
| O=C1c2cc(S(=O)(=O)NCCO)ccc2-c2ccc(S(=O)(=O)NCCO)cc21 | inconclusive: 8.91 µM [quencher, side channel, partial curve] |
| COCCn1c(=O)c2cc3c(=O)n(CCOC)c(=O)c3cc2c1=O | inconclusive: 8.91 µM [quencher, side channel, partial curve] |
| Cc1ccccc1NC(=O)C1CCN(S(=O)(=O)c2cccc3nonc23)CC1 | inconclusive: 2.82 µM [quencher, side channel, full curve] |
| CO/N=C/c1ccc(Sc2ccccc2N)c([N+](=O)[O-])c1 | inconclusive: 11.2 µM [quencher, side channel, partial curve] |
| O=C(COc1ccccc1Br)Nc1ccc2c(c1)OCCCO2 | inactive |
| CCCCC1OC23CCCCC2C(C#N)(C#N)C1(C#N)C(=N)O3 (stereo unspecified) | inconclusive: 28.2 µM [quencher, partial curve] |
| CCN1C(=O)/C(=C\c2cccn2-c2ccc([N+](=O)[O-])cc2)N(CC)C1=S | inconclusive: 39.8 µM [quencher, side channel, single point] |
| CCNC(=O)/C(C#N)=C/c1c(N2CCCCCC2)nc2ccccn2c1=O | inconclusive: 28.2 µM [quencher, side channel, partial curve] |
| CC1=NN(c2ccccc2)C(=O)/C1=C\C=C1\N(C)c2ccccc2C1(C)C | inconclusive: 4.47 µM [quencher, side channel, partial curve] |
| Cc1ccc(C(=O)c2cc([N+](=O)[O-])ccc2N2CCOCC2)c(C)c1 | inconclusive: 25.1 µM [quencher, side channel, partial curve] |
| Cc1cccc(C)c1OCC(=O)N/N=C/c1cc2c(cc1[N+](=O)[O-])OCO2 | inconclusive: 8.91 µM [quencher, side channel, partial curve] |
| Cc1ccc(C=Nc2ccc(N(C)C)cc2)o1 | inconclusive: 25.1 µM [quencher, partial curve] |
| COc1cc(/C=C2/NC(=O)NC2=O)cc(Br)c1OCc1cccc(C(=O)O)c1 | inconclusive: 17.8 µM [quencher, side channel, partial curve] |
| COc1ccccc1C(=O)NCCNC(=O)c1ccc(C)nc1 | inactive |
| CCOc1ccc(C(=O)Nc2ccc(N3CCN(C)CC3)cc2)cc1[N+](=O)[O-] | inconclusive: 28.2 µM [quencher, side channel, partial curve] |
| CCCCc1ccc(NC(=O)Nc2cc(C)nn2C)cc1 | inactive |
| COc1ccccc1C/C(N)=N/OC(=O)c1ccc(C)c([N+](=O)[O-])c1 | inconclusive: 28.2 µM [quencher, side channel, single point] |
| O=C(NN1CCOCC1)c1ccc([N+](=O)[O-])cc1 | inconclusive: 8.91 µM [quencher, side channel, partial curve] |
| CC(NC(=O)CSc1nc2c(cc1C#N)CN(C)CC2)c1ccccc1 (stereo unspecified) | inconclusive: 12.6 µM [quencher, side channel, partial curve] |
| COc1ccc(C2(CNC(=O)c3ccc(OC)c([N+](=O)[O-])c3)CCOCC2)cc1OC | inconclusive: 10 µM [quencher, side channel, partial curve] |
| Cc1cc2oc(=O)cc(CN3CCCCC3)c2cc1O | inconclusive: 28.2 µM [quencher, side channel, single point] |

| Structure (SMILES) | Potency |
| --- | --- |
| O=Nc1c(O)[nH]c2ccc(Cl)cc12 | inconclusive: 15.8 µM [quencher, side channel, partial curve] |
| Cc1cccc(C)c1OCC(=O)NNC(=S)NC(=O)C1CC1 | inactive |
| CC1CC(=O)c2cnc(Nc3cccc(C(F)(F)F)c3)nc2C1 (stereo unspecified) | inactive |
| CC1CCN(CCCNC(=O)COc2cc(=O)n(C)c3ccccc23)CC1 | inactive |
| COc1ccc(NC(=S)N2CCN(CCN3C(=O)c4cccc5cccc(c45)C3=O)CC2)cc1 | inconclusive: 1.58 µM [quencher, side channel, full curve, poor fit] |
| COCCN1C(=O)c2ccc(C(=O)Nc3cccnc3)cc2C1=O | inconclusive: 11.2 µM [quencher, side channel, partial curve] |
| COCCNC(=O)/C(C#N)=C/c1cc(Br)c(O)c(OC)c1 | inactive |
| COc1ccc(-n2nnc3c(=O)n(CC(=O)N4CCC(Cc5ccccc5)CC4)cnc32)cc1 | inconclusive: 2 µM [quencher, side channel, partial curve] |
| COc1ccc(C)cc1NC(=O)CCS(=O)(=O)c1cccc2nonc12 | inconclusive: 14.1 µM [quencher, side channel, partial curve] |
| O=C(NC1CCCc2ccccc21)c1ccc([N+](=O)[O-])cc1 (stereo unspecified) | inconclusive: 14.1 µM [quencher, side channel, partial curve] |
| O=C(COC(=O)c1ccc(-c2cnc3ccccc3n2)cc1)c1ccccc1 | inconclusive: 0.1 µM [fluorescent, side channel, full curve] |
| CN1C(=O)NC(c2ccccc2[N+](=O)[O-])C2=C1CCCC2=O (stereo unspecified) | inconclusive: 14.1 µM [quencher, side channel, single point] |
| O=c1[nH]c2cnccc2n1-c1ccccc1 | inconclusive: 7.08 µM [fluorescent, side channel, single point] |
| CCC(=O)N(C1=C(NC(C)C)C(=O)c2ccccc2C1=O)C(C)C | inconclusive: 12.6 µM [quencher, partial curve] |
| CCC(O)(CC)C(=O)N=Nc1c(O)[nH]c2ccccc12 | inconclusive: 15.8 µM [quencher, partial curve] |
| Cc1ccc2nc(NC(=O)C(NS(=O)(=O)c3cccc4nsnc34)C(C)C)sc2c1 (stereo unspecified) | inconclusive: 25.1 µM [quencher, side channel, partial curve] |
| CC1CN(C(=S)NC(=O)c2ccc([N+](=O)[O-])cc2)CC(C)O1 (stereo unspecified) | inconclusive: 14.1 µM [quencher, partial curve, poor fit] |
| O=C(/C=C/c1cccc([N+](=O)[O-])c1)NCCSc1ccccc1 | inconclusive: 14.1 µM [quencher, side channel, partial curve] |
| O=C(N/N=C/c1cccc([N+](=O)[O-])c1)c1cc[n+](CCO)cc1 | inconclusive: 12.6 µM [quencher, side channel, partial curve] |
